Some of the results follow.
How the values were obtained:
Assay in all cases: glycan array binding signal (z-score within array); higher = stronger binding
Settings in all cases: glycan notation: IUPAC condensed, linker removed
[1] = biological target: GlcNAc(a1-6)Gal(b1-4)GlcNAc
Method in brief: (§1)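 The Consortium for Functional Glycomics database supplied 3228 glycan arrays, of which those lacking an available protein sequence were dropped. The binding signal, a within-array Z-score, was averaged across arrays of the same protein sequence and across linkers. Negative scores can be read as non-binding.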

[2] = biological target: GlcNAc(b1-2)Gal(b1-3)GalNAc
Method in brief: as §1

[3] = biological target: GlcNAc(b1-2)Man(a1-3)[GlcNAc(b1-2)Man(a1-6)]Man(b1-4)GlcNAc(b1-4)GlcNAc
Method in brief: as §1

[4] = biological target: GlcNAc(b1-2)Man(a1-3)[GlcNAc(b1-2)Man(a1-6)]Man(b1-4)GlcNAc(b1-4)[Fuc(a1-6)]GlcNAc
Method in brief: as §1

[5] = biological target: GlcNAc(b1-2)Man(a1-3)[GlcNAc(b1-4)][GlcNAc(b1-2)Man(a1-6)]Man(b1-4)GlcNAc(b1-4)GlcNAc
Method in brief: as §1

[6] = biological target: GlcNAc(b1-2)Man(a1-3)[GlcNAc(b1-4)][GlcNAc(b1-2)Man(a1-6)]Man(b1-4)GlcNAc(b1-4)[Fuc(a1-6)]GlcNAc
Method in brief: as §1

[7] = biological target: GlcNAc(b1-2)[GlcNAc(b1-4)]Man(a1-3)[GlcNAc(b1-2)Man(a1-6)]Man(b1-4)GlcNAc(b1-4)GlcNAc
Method in brief: as §1

[8] = biological target: GlcNAc(b1-2)[GlcNAc(b1-4)]Man(a1-3)[GlcNAc(b1-4)][GlcNAc(b1-2)Man(a1-6)]Man(b1-4)GlcNAc(b1-4)GlcNAc
Method in brief: as §1

[9] = biological target: GlcNAc(b1-2)[GlcNAc(b1-4)]Man(a1-3)[GlcNAc(b1-4)][GlcNAc(b1-2)[GlcNAc(b1-6)]Man(a1-6)]Man(b1-4)GlcNAc(b1-4)GlcNAc
Method in brief: as §1

[10] = biological target: GlcNAc(b1-2)[GlcNAc(b1-4)]Man(a1-3)[GlcNAc(b1-4)][GlcNAc(b1-2)[GlcNAc(b1-6)]Man(a1-6)]Man(b1-4)GlcNAc(b1-4)[Fuc(a1-6)]GlcNAc
Method in brief: as §1

[11] = biological target: GlcNAc(b1-2)[GlcNAc(b1-6)]Man(a1-6)[GlcNAc(b1-2)Man(a1-3)]Man(b1-4)GlcNAc(b1-4)GlcNAc
Method in brief: as §1

[12] = biological target: GlcNAc(b1-2)[GlcNAc(b1-6)]Man(a1-6)[GlcNAc(b1-2)Man(a1-3)]Man(b1-4)GlcNAc(b1-4)[Fuc(a1-6)]GlcNAc
Method in brief: as §1

[13] = biological target: GlcNAc(b1-2)[GlcNAc(b1-6)]Man(a1-6)[GlcNAc(b1-4)][GlcNAc(b1-2)Man(a1-3)]Man(b1-4)GlcNAc(b1-4)GlcNAc
Method in brief: as §1

GlcNAc(b1-3)Fuc = biological target: GlcNAc(b1-3)Fuc
Method in brief: as §1

GlcNAc(b1-3)Gal = biological target: GlcNAc(b1-3)Gal
Method in brief: as §1

[14] = biological target: GlcNAc(b1-3)Gal(b1-3)GalNAc
Method in brief: as §1

GlcNAc(b1-3)Gal(b1-4)Glc = biological target: GlcNAc(b1-3)Gal(b1-4)Glc
Method in brief: as §1

[15] = biological target: GlcNAc(b1-3)Gal(b1-4)GlcNAc
Method in brief: as §1

[16] = biological target: GlcNAc(b1-3)Gal(b1-4)GlcNAc(b1-2)Man(a1-3)[GlcNAc(b1-3)Gal(b1-4)GlcNAc(b1-2)Man(a1-6)]Man(b1-4)GlcNAc(b1-4)GlcNAc
Method in brief: as §1

[17] = biological target: GlcNAc(b1-3)Gal(b1-4)GlcNAc(b1-2)Man(a1-3)[GlcNAc(b1-3)Gal(b1-4)GlcNAc(b1-2)Man(a1-6)]Man(b1-4)GlcNAc(b1-4)[Fuc(a1-6)]GlcNAc
Method in brief: as §1

[18] = biological target: GlcNAc(b1-3)Gal(b1-4)GlcNAc(b1-2)[GlcNAc(b1-3)Gal(b1-4)GlcNAc(b1-6)]Man(a1-6)[GlcNAc(b1-3)Gal(b1-4)GlcNAc(b1-2)Man(a1-3)]Man(b1-4)GlcNAc(b1-4)GlcNAc
Method in brief: as §1

[19] = biological target: GlcNAc(b1-3)Gal(b1-4)GlcNAc(b1-3)Gal(b1-4)GlcNAc
Method in brief: as §1

## CTAEGIKKFEGDGYELFKDNFPAGEKFDNDDTNDQFYTVIF [MUB40 (Lactobacillus reuteri)]
[1]
  glycan array binding signal (z-score): 0.266
[2]
  glycan array binding signal (z-score): -0.359
[3]
  glycan array binding signal (z-score): -0.469
[4]
  glycan array binding signal (z-score): 0.117
[5]
  glycan array binding signal (z-score): -0.288
[6]
  glycan array binding signal (z-score): 1.21
[7]
  glycan array binding signal (z-score): 0.495
[8]
  glycan array binding signal (z-score): 0.537
[9]
  glycan array binding signal (z-score): 0.381
[10]
  glycan array binding signal (z-score): -0.052
[11]
  glycan array binding signal (z-score): -0.318
[12]
  glycan array binding signal (z-score): 0.341
[13]
  glycan array binding signal (z-score): -0.466
GlcNAc(b1-3)Fuc
  glycan array binding signal (z-score): -0.127
GlcNAc(b1-3)Gal
  glycan array binding signal (z-score): -0.393
[14]
  glycan array binding signal (z-score): 0.231
GlcNAc(b1-3)Gal(b1-4)Glc
  glycan array binding signal (z-score): -0.35
[15]
  glycan array binding signal (z-score): 0.128
[16]
  glycan array binding signal (z-score): 0.142
[17]
  glycan array binding signal (z-score): -0.159
[18]
  glycan array binding signal (z-score): -0.034
[19]
  glycan array binding signal (z-score): 0.512

— the supplement of paper PMC8728848
